Measurements reported in PubChem BioAssay AID1030 (National Center for Advancing Translational Sciences (NCATS), 2008).
“And” between values parts separate entries of the source, which are not always exact repeats. Equal values may be shown once. The whole screen tested about 220,000 compounds, of which about 16,000 (7.3%) were called active. The inconclusive results got no clear call from the source; some entries with a clear call stand among them for comparison. Calls come from the whole dose curve; as a rule, active = well fitted inhibition curve with a large enough effect (not every such curve was filed as active); inconclusive = small, poorly fitted or top-dose-only effect, or another doubt; inactive = no such curve, though single readings can be large or run the other way. Potencies of inconclusive entries are doubtful fits and often do not repeat.

These compounds were tested against Aldehyde dehydrogenase 1A1 (Homo sapiens) (UniProt P00352) (assay: qHTS Assay for Inhibitors of Aldehyde Dehydrogenase 1 (ALDH1A1)). Details: Purified ALDH1A1, NADH fluorescence, propionaldehyde substrate; series mostly up to 75.3 µM.
UniProt P00352, sequence (P00352 whole entry, looked up): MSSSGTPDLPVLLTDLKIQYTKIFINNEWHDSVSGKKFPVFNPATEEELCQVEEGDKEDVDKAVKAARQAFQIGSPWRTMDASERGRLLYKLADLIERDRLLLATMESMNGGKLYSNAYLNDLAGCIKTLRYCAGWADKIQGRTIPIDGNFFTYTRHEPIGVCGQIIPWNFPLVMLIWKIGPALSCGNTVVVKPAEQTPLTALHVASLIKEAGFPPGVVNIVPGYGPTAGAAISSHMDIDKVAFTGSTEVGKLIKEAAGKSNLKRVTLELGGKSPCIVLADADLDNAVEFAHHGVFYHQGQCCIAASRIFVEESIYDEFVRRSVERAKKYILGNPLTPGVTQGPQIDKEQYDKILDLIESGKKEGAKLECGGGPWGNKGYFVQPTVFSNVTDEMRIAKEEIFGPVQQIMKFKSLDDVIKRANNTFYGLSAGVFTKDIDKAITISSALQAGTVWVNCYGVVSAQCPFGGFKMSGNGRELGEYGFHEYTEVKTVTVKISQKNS
Potency is the fitted concentration of half-maximal effect; tags give direction and shape of the fitted curve.
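Throughout, for activity, negative = inhibition: plate controls were no enzyme wells and a reference inhibitor.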

Potency, inconclusive:
Cc1ccc(C2CC(=O)c3cnc(NC(=O)c4ccco4)nc3C2)cc1 (centres undefined) 25.1 µM [inhibitor, single point]
Cc1cccc(-c2cc3nc(C)cc(NCCCN(C)C)n3n2)c1 31.6 µM [inhibitor, single point]
COc1ccc(Nc2ncnc3c2cnn3Cc2ccc(C)cc2)cc1 39.8 µM [inhibitor, single point]
CN(Cc1ccc(F)cc1)C(=O)c1ccc2c(c1)NC(=O)CS2 39.8 µM [inhibitor, single point]
CS(=O)(=O)N1CCC(Oc2ccccc2C(=O)NC2CCCCCC2)CC1 14.1 µM [inhibitor, partial curve]
c1ccc2c(Nc3ccncc3)nc(-c3ccc4c(c3)OCO4)nc2c1 12.6 µM [inhibitor, partial curve, poor fit]
O=S(=O)(c1cccs1)N1CCc2ccccc21 35.5 µM [inhibitor, single point]
Cc1sc2ncnc(SCC(=O)N3c4ccccc4Sc4ccc(Cl)cc43)c2c1C 39.8 µM [inhibitor, single point]
Cc1c2cc(O)c(=O)cc-2oc2cc(O)c(O)cc12 10 µM [inhibitor, partial curve] and 18.9 µM [inhibitor, single point]
CC(C)C(c1nnnn1Cc1cccs1)N1CCN(C2CCCC2)CC1 (centres undefined) 28.2 µM [inhibitor, single point]
Cc1c(C(=O)NCC2CCCO2)sc2nc(-c3ccccc3)cn12 (centres undefined) 39.8 µM [inhibitor, single point]
O=C(O)c1ccc2cc[nH]c2c1 39.8 µM [inhibitor, single point]
COC(=O)c1cc2c(ccn2-c2ccc(F)cc2)n1CC(C)C 8.91 µM [inhibitor, partial curve]
N#CC1(Nc2cccc(Br)c2)C(=O)Nc2ccccc21 (centres undefined) 25.1 µM [inhibitor, single point]
COc1cccc(/C=C2\C(=O)C(=O)c3ccccc32)c1 1.41 µM [inhibitor, partial curve]
O=C(Nc1ccc(-c2cnco2)cc1)c1ccc(F)cc1F 37.7 µM [inhibitor, single point]
CCOc1ccc(-c2nnc(-c3ccccc3)o2)cc1 20 µM [inhibitor, partial curve]
Nc1nc(CN2CCCCCC2)nc(Nc2ccc(F)cc2)n1 39.8 µM [inhibitor, single point]
CCOC(=O)CC(NC(=O)c1cccc2c1C(=O)N(Cc1cccnc1)C2)c1ccc(OC(C)C)cc1 (centres undefined) 39.8 µM [inhibitor, single point]
N#Cc1cc2c(nc1SCc1cccnc1)CCCC2 3.16 µM [inhibitor, full curve]
Cc1ccc(CN2CCSc3ccc(C(=O)NCc4ccccn4)cc32)cc1 35.5 µM [inhibitor, partial curve]
O=c1c(CCc2ccccc2)nc2cnc(N3CCNCC3)nc2n1Cc1ccc(F)cc1 31.6 µM [inhibitor, partial curve]
O=C(O)c1ccc2c(c1)C(=O)N(c1ccc(/C=C/C(=O)c3ccccc3)cc1)C2=O 31.6 µM [inhibitor, single point]
Cc1nn(CC(=O)Nc2ccc3c(c2)nc2n3CCN(C3CCCCC3)C2)c(=O)c2ccccc12 25.1 µM [inhibitor, partial curve]
COc1ccc(-n2ccnc2SCC(=O)NCc2ccc3c(c2)OCO3)cc1 25.1 µM [inhibitor, single point]
O=C(CN1CCC(n2cnc3cc(F)ccc32)CC1)Nc1ccccc1Br 39.8 µM [inhibitor, single point]
Cc1nnsc1S(=O)(=O)Cc1ccccc1Cl 17.8 µM [inhibitor, partial curve]
CC(=O)Nc1ccc(S(=O)(=O)N2CCN(Cc3cccc([N+](=O)[O-])c3)CC2)cc1 39.8 µM [inhibitor, single point]
O=C1CC(N2CCN(Cc3ccc4c(c3)OCO4)CC2)C(=O)N1c1cccc(Cl)c1 (centres undefined) 39.8 µM [inhibitor, single point]
COc1cccc(C2=NN(C(=O)c3ccco3)C(O)(C(F)(F)F)C2)c1 (centres undefined) 39.8 µM [inhibitor, single point]
CCN(CC)CCN(Cc1cc2cccc(C)c2[nH]c1=O)C(=S)Nc1ccccc1 39.8 µM [inhibitor, single point]
CC(C)C(=O)Nc1ccc(S(=O)(=O)Nc2ccccn2)cc1 15 µM [inhibitor, partial curve]
CSc1snc(SCC(N)=O)c1C#N 25.1 µM [inhibitor, single point]
OCCNc1ncnc2c1sc1nc(N3CCOCC3)c3c(c12)CCC3 31.6 µM [inhibitor, single point]
N#CC1=C(N)C(C#N)(C#N)C(c2cccnc2)C2CN(C(=O)OCc3ccccc3)CC=C12 (centres undefined) 44.7 µM [inhibitor, single point]
CCOc1ccc(/C=C2/SC(=S)N(n3c(C)ccc3C)C2=O)cc1 28.2 µM [inhibitor, partial curve]
CCOC(=O)c1c(-c2ccccc2)oc2ccc(O)c(CN3CCOCC3)c12 37.7 µM [inhibitor, single point]
CCOC(=O)c1nnn(-c2nn3nnnc3c3ccccc23)c1C 28.2 µM [inhibitor, single point]

Potency, active:
CCOC(=O)N1CCN(c2ncnc3c2cnn3-c2ccc(Cl)cc2)CC1 3.98 µM
Cc1cccc2cc(CN(Cc3ccc(F)cc3)Cc3nnnn3C3CCCC3)c(=O)[nH]c12 14.1 µM
CN1C(=O)/C(=N\OC(=O)c2cccc3ccccc23)c2ccccc21 14.1 µM
CCN1CCN(CC(=O)c2cc(Cl)ccc2Cl)CC1 14.1 µM
C[C@@H](C(=O)NCC1CC1)[C@H]1C[C@]1(C)[C@H](NC(=O)OCc1ccccc1)c1ccccc1 15.8 µM and 17.8 µM
NNS(=O)(=O)c1ccc(N2CCCC2=O)c([N+](=O)[O-])c1 17.8 µM
CCOC(=O)N1CCN(C(=O)c2oc(=O)c3ccccc3c2-c2ccc(C)cc2)CC1 0.0141 µM
CCCOc1cccc(C2/C(=C(/O)c3ccc(OC)cc3)C(=O)C(=O)N2CCN(C)C)c1 (centres undefined) 15.8 µM
NC(=O)c1ccsc1NC(=O)c1ccco1 25.1 µM
Cc1nc(N)sc1C(=O)NN 25.1 µM
CCN(CC)CCCNC(=O)c1ccc(N2CCCCC2)c(NS(=O)(=O)c2ccc(C)cc2)c1 14.1 µM
COc1ccc(NC(=S)NNc2ccc([N+](=O)[O-])cc2S(=O)(=O)Nc2ccc(C)cc2C)cc1 3.98 µM

Potency, inactive:
O=C(CSc1nnc2sc3ccccc3n12)NCc1ccco1
Cc1cccc(C)c1NC(=O)N1CCC(N2CCCCC2)CC1
CN1CCN(S(=O)(=O)c2ccc(Sc3nnnn3-c3ccccc3)c([N+](=O)[O-])c2)CC1
CC(Cc1c[nH]c2ccccc12)C(=O)O (centres undefined)
O=C(CCn1c(=O)[nH]c2ccccc2c1=O)Nc1ccccc1
COC(=O)[C@@H]1C[C@@]2(O)[C@@H](O)[C@@H](O)[C@@H](O)C[C@H]2N1CC(c1ccccc1)c1ccccc1
C/C(=N\NC(=S)NCc1ccccc1)c1cccc(Br)c1
CC[n+]1c(C)sc2c3ccsc3ccc21
CCCCc1c(O)n(-c2ccccc2)[nH]c1=O
O=C(COc1ccc(Br)cc1Br)NC1CCCC1
CN(C)S(=O)(=O)c1cccc(NC(=O)COC(=O)c2cc(-c3cccc(Br)c3)nc3ccccc23)c1
CCOC(=O)c1sc(-c2ccccn2)nc1C
O=C1C2C3c4ccccc4C(c4ccccc43)C2C(=O)N1Cc1ccco1 (centres undefined)
Cc1cccc(NC(=O)CCc2ccc(C)o2)c1
COc1ccc(S(=O)(=O)CCC(=O)O)cc1
CC(C)S(=O)(=O)N1CCCC(C(=O)c2cccc(Cl)c2)C1 (centres undefined)
Cn1ncc(N=Cc2ccccc2O)c1C(=O)N1CCOCC1
Cc1cc(C)n(-c2nc(Nc3ccccc3C)nc(-n3nc(C)cc3C)n2)n1
CC(Sc1nc2cc([N+](=O)[O-])ccc2n1-c1cccc(C(F)(F)F)c1)C(=O)NC(N)=O (centres undefined)
O=C(CCNC(=O)OCc1ccccc1)NC1CCCCCC1
O=C1CN(CC(=O)Nc2ccc(SC(F)F)cc2)CCN1

activity, negative = inhibition, inactive:
CCc1cc2c(nc1CC)CCN(CC/C(C)=N/OC[C@@H](C)[C@H](OCc1ccccc1)C(C)C)C2 12.5% [at 13.5 µM]
CC(C)c1ccccc1S(=O)c1ccccc1C(C)(C)O (centres undefined) 24.4% [at 13.5 µM]
COC(=O)C1=C(C(=O)OC)[C@@H]2N(C)c3ccccc3[C@@]23C[C@@H](C(=O)OC)N(C(=O)c2ccc(Br)cc2)C3=N1 11.3% [at 13.5 µM]
